Paper PMC6919601, “Identification of Plasmodium dipeptidyl aminopeptidase allosteric inhibitors by high throughput screening” (PLoS ONE, 2019)
Hit rate of the full screen: of about 110,000 compounds, about 230 (0.21%) showed an effect of 50% or more. The list shows a part of the results.

Each compound was assayed against DPAP1 (Plasmodium falciparum, UniProt Q8IIJ9) (assay: primary screen, percent inhibition; read by cleavage of a fluorogenic dipeptide substrate; higher = more effect of the substance).
Parameters: species or system P. falciparum D10 trophozoite lysates; single well
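Also: 30 min substrate incubation versus DMSO and 10 µM JCP410 controls.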

DPAP1, sequence (Q8IIJ9 whole entry, looked up): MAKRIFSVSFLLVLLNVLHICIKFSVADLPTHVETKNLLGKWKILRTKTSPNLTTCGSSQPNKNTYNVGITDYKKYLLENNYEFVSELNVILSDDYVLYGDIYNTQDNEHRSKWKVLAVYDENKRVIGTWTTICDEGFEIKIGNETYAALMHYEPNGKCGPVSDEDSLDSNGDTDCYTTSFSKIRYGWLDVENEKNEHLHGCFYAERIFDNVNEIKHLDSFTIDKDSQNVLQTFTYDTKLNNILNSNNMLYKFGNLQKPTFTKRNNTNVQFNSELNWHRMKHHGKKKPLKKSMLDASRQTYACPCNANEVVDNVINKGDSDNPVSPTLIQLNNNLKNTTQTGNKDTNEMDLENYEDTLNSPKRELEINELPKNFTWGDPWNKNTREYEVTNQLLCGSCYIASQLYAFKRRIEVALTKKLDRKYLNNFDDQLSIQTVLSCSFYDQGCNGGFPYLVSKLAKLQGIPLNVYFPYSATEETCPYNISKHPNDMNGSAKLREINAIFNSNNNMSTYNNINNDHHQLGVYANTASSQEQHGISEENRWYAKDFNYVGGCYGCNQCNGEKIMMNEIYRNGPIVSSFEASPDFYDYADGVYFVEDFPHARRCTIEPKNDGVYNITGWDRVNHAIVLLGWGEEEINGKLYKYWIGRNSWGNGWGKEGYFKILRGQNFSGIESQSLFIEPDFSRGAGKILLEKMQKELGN

Going from `CC1=C(C(=O)OCc2ccccc2)C(c2ccsc2)C(C#N)=C(N)O1` (stereo not shown) to `N#CC1=C(N)Oc2cc(O)ccc2C1c1ccccc1` (stereo not shown), the “% Inhibition @ 10 uM” value rises from 1.41% to 1.7%.

Going from `COc1ccc(C2C(C(=O)O)c3ccccc3C(=O)N2Cc2ccc(F)cc2)cc1` (stereo not shown) to `COc1ccc(NC(=O)c2cc(Cl)ccc2NC(=O)c2ccco2)cc1`, the “% Inhibition @ 10 uM” value falls from 4.33% to -6.77%.

Compared with `Cc1cc(C)n2nc(SCC(=O)NCCC3=CCCCC3)nc2n1`, `Cc1ccc2cnn(CC(=O)NCCN3CCOCC3)c2c1` is lower in “% Inhibition @ 10 uM” value: 2.79% for the first, -2.88% for the second.

First: COc1ccc(C2C(C#N)=C(N)N(c3ccc(Br)cc3)C3=C2C(=O)CCC3)cc1 (stereo not shown)
Second: CC(=O)N1N=C(c2ccco2)CC1c1ccc(Br)cc1 (stereo not shown)
The “% Inhibition @ 10 uM” value of the first is higher: -1.06% for the first, -7.28% for the second.

Compared with `Cc1sc2nc3n(c(=O)c2c1C)CCCCC3`, `CCC(C)NC(=O)C1CCN(c2nn3c(=O)cc(C)nc3s2)CC1` (stereo not shown) is higher in “% Inhibition @ 10 uM” value: -7.5% for the first, -0.281% for the second.

Going from `O=C(CCCOc1ccc(Cl)cc1Cl)N1CCc2ccccc2C1` to `Cc1ccc2onc(CNC(=O)N3CCc4ccccc4C3)c2c1`, the “% Inhibition @ 10 uM” value rises from 1.35% to 4.8%.

Going from `CNC(=O)NC1C(NC(=O)NC)N(C)C(=O)N1C` (stereo not shown) to `Cc1cc(C)nc(NC(=O)CCSCCC(=O)Nc2cc(C)cc(C)n2)c1`, the “% Inhibition @ 10 uM” value rises from -0.178% to 5.42%.

Going from `Cc1nc(O)c(C#N)c(C)c1[N+](=O)[O-]` to `CC1(C)CC(=O)c2c(nc3ccc([N+](=O)[O-])cc3c2N)C1`, the “% Inhibition @ 10 uM” value rises from -2.55% to -1.42%.

First: CCOc1ccccc1/C=C1/SC(=O)N(C(C)CC)C1=O (stereo not shown)
Second: CCOc1cc(/C=C2/NC(=O)N(Cc3ccccc3)C2=O)c(Br)cc1O
The “% Inhibition @ 10 uM” value of the first is higher: -2.46% for the first, -8.02% for the second.

Compared with `C=CCOc1ccc(CNCCO)cc1OC`, `COc1cc(CNCCO)cc(Br)c1OCc1ccccc1` is higher in “% Inhibition @ 10 uM” value: -2.76% for the first, 3.35% for the second.

Going from `Cc1nc(O)nc(O)c1NC(=O)CSc1nccc(-c2ccc(F)cc2)n1` to `CCC(=O)Nc1ccc(-c2cn3ccsc3n2)cc1`, the “% Inhibition @ 10 uM” value rises from -1.31% to 4.67%.

Going from `O=C1C(c2ccccc2)=C(c2ccccc2)C(=O)N1O` to `O=C(Nc1ccccc1Br)c1ccc(-c2ccccc2)cc1`, the “% Inhibition @ 10 uM” value falls from 3.25% to 0.605%.

Compared with `COc1ccc(OC)c(-c2cc(C(=O)NCCN3CCOCC3)no2)c1`, `COc1ccc2cc(Br)ccc2c1CC(=O)N1CCOCC1` is lower in “% Inhibition @ 10 uM” value: 0.0221% for the first, -4.75% for the second.

Going from `COc1ccccc1/C=C1\N=C(c2ccc(Br)cc2)OC1=O` to `O=c1/c(=C\c2ccc(Br)cc2)sc2nc3ccccc3n12`, the “% Inhibition @ 10 uM” value falls from 3.47% to 0.634%.

Compared with `O=C1CC(N2CCN(/C=C/c3ccccc3)CC2)C(=O)N1c1ccccc1` (stereo not shown), `Cc1ccc(N2C(=O)CC(N3CCCN(C)CC3)C2=O)cc1` (stereo not shown) is lower in “% Inhibition @ 10 uM” value: 4.65% for the first, 4.33% for the second.

First: O=C(Nc1cccc(-c2nc3ncccc3o2)c1)c1cc2ccccc2o1
Second: Cc1cccc(C(=O)Nc2cccc(-c3cn4ccsc4n3)c2)c1
The “% Inhibition @ 10 uM” value of the first is lower: -3.05% for the first, 3.05% for the second.

Going from `CCOC(=O)C1=C(CC)N=C(CC)/C(=C(/O)OCC)C1C(=O)O` (stereo not shown) to `CCOc1cccc(C(=O)N[C@@H](CC(C)C)C(=O)NCC#N)c1`, the “% Inhibition @ 10 uM” value rises from 0.989% to 1.71%.

First: COc1cc(CN2CCN(c3cccc(C(F)(F)F)c3)CC2)cc2c1OCO2
Second: Clc1cccc(N2CCN(Cc3ccc(Br)s3)CC2)c1
The “% Inhibition @ 10 uM” value of the first is higher: 4.03% for the first, 3.16% for the second.

Going from `CC1CCc2oc3ccc(NS(=O)(=O)c4cccs4)cc3c2C1` (stereo not shown) to `CC(=O)NS(=O)(=O)c1ccc(NC(=O)c2cc(-c3cccs3)nc3ccccc23)cc1`, the “% Inhibition @ 10 uM” value rises from -4.49% to -3.19%.

Going from `Cc1cc2oc(C(=O)N(Cc3ccc(C(C)C)cc3)C3CCS(=O)(=O)C3)cc(=O)c2cc1C` (stereo not shown) to `CN(C1CCS(=O)(=O)C1)S(=O)(=O)c1ccc(Cl)cc1` (stereo not shown), the “% Inhibition @ 10 uM” value falls from -1.47% to -2.91%.

Going from `COc1ccc2nc(N3CCCC(C(=O)NCc4ccc5c(c4)OCO5)C3)sc2c1` (stereo not shown) to `OCCC1CCCCN1Cc1ccc2c(c1)OCO2` (stereo not shown), the “% Inhibition @ 10 uM” value falls from -4.65% to -5.11%.

Going from `C=CCNC(=O)C1=CC(c2ccc(C)cc2)=NS(=O)(=O)N1C` to `CCCCc1ccc(NC(=O)c2ccccc2C)cc1`, the “% Inhibition @ 10 uM” value falls from 3.92% to -8.2%.

Compared with `CSc1ccccc1-c1ccc(C(=O)N[C@@H](CC(C)C)C(=O)NCC#N)cn1`, `C=CCc1cc(C=C2C(=O)c3ccccc3C2=O)cc(OC)c1OCC(=O)O` is higher in “% Inhibition @ 10 uM” value: -5.2% for the first, 1.84% for the second.

Compared with `Cc1nn2c(c1-c1ccccc1)NC(C(F)(F)F)(C(F)(F)F)NC2=O`, `CC(C)Cn1c2c(c(=O)[nH]c1=O)C(C(F)(F)F)(C(F)(F)F)NC(c1cccc(Cl)c1)=N2` is lower in “% Inhibition @ 10 uM” value: 0.709% for the first, 0.413% for the second.

Compared with `Cc1ccc(S(=O)(=O)NCc2ccc(C(=O)NCCN(CC(C)C)CC(C)C)cc2)cc1`, `COc1cc(CNS(=O)(=O)c2ccc(CN3C(=O)c4ccccc4C3=O)cc2)cc(OC)c1OC` is higher in “% Inhibition @ 10 uM” value: 4.81% for the first, 5.98% for the second.

Compared with `COC(=O)c1cncn1C(C)c1ccccc1` (stereo not shown), `CC(C)n1cc(/C=C2\Sc3ccccc3C2=O)c2ccccc21` is lower in “% Inhibition @ 10 uM” value: -3.41% for the first, -5.38% for the second.

Compared with `O=C(CNS(=O)(=O)c1ccc(Cl)cc1)N1CCN(C(c2ccccc2)c2ccccc2)CC1`, `O=C1C=C(N2CCN(Cc3ccccc3)CC2)C(=O)N1c1ccc(Cl)cc1` is higher in “% Inhibition @ 10 uM” value: -0.469% for the first, 1.4% for the second.

Going from `CCNCC(=O)N1c2ccccc2CCc2ccc(NC(C)=O)cc21` to `CCOc1ccc(C(=O)Nc2ccccc2NC(=O)c2ccc(OCC)cc2)cc1`, the “% Inhibition @ 10 uM” value falls from 4.63% to -1.44%.

Compared with `O=C(O)CCn1[nH]c(=O)ccc1=O`, `Cc1cc(NC(=O)Cn2cnc3c(cnn3C)c2=O)[nH]n1` is lower in “% Inhibition @ 10 uM” value: -3.53% for the first, -6.08% for the second.

Going from `CCC(NC(=O)Nc1ccc(C)cc1C)(C(F)(F)F)C(F)(F)F` to `O=C(CC1NCCNC1=O)Nc1cccc(C(F)(F)F)c1` (stereo not shown), the “% Inhibition @ 10 uM” value falls from 2.58% to -12.2%.

First: COC(=O)c1sc2nc3n(c(=O)c2c1C)N=C(c1cc2cc(Cl)ccc2oc1=O)CS3
Second: COc1ccc(NC(=O)Nc2ccc3oc(C)nc3c2)cc1
The “% Inhibition @ 10 uM” value of the first is higher: 0.759% for the first, -8.92% for the second.

Going from `O=C(O)c1cc(-c2cccc(O)c2)nc2ccc(Br)cc12` to `Cc1c(-c2cccc(Cl)c2)nc2ccccc2c1C(=O)N1CCOCC1`, the “% Inhibition @ 10 uM” value falls from -2.78% to -5.29%.

Going from `CN(C)c1nc(N)nc(COC(=O)c2ccc(-n3cnnc3)cc2)n1` to `CC(=O)c1c(C(C)=O)c(C)n(-c2ccc(N)cc2)c1C`, the “% Inhibition @ 10 uM” value falls from 1.76% to -2.03%.

First: Cc1ccc(-n2nc(C)c(/C=N/c3ccc(S(=O)(=O)Nc4nc(C)cc(C)n4)cc3)c2O)c(C)c1
Second: Cc1ccc2cc(C)c(NCc3ccccn3)nc2c1
The “% Inhibition @ 10 uM” value of the first is higher: 5.58% for the first, 5.16% for the second.

First: N#CCC(=O)NCCc1ccccc1
Second: O=C(O)CNC(=S)N(Cc1ccccc1)Cc1ccccc1F
The “% Inhibition @ 10 uM” value of the first is higher: 3.04% for the first, -3.78% for the second.

First: COc1cc2c(cc1OC)CN(Cc1ccc(C)o1)CC2
Second: COc1cc2c(cc1OC)C(c1cccc(O)c1)NCC2 (stereo not shown)
The “% Inhibition @ 10 uM” value of the first is higher: 2.06% for the first, -5.5% for the second.

First: CC(=O)N(CN1C(=O)c2ccc(Br)cc2C1=O)c1ccc(Cl)cc1
Second: Cc1ccccc1CNC(=O)CN(c1ccc(Cl)c(Cl)c1)S(C)(=O)=O
The “% Inhibition @ 10 uM” value of the first is lower: -4.82% for the first, -2.28% for the second.

First: O=S(=O)(c1cccc2cccnc12)N1CCOCC1
Second: c1ccc(-c2cc(N3CCOCC3)n3cnnc3n2)cc1
The “% Inhibition @ 10 uM” value of the first is lower: -0.687% for the first, 0.895% for the second.

Going from `Cc1nc(S)nc(O)c1Cc1ccccc1` to `CN(Cc1ccccc1)C(=O)c1cc2ccc3cccnc3c2[nH]1`, the “% Inhibition @ 10 uM” value rises from 0.146% to 6.52%.

First: COc1ccccc1NC(=O)c1cccc(C(=O)Nc2ccccc2OC)c1
Second: COc1ccc(/C=C(\C#N)C(=O)Nc2ncc(Cc3cccc(Cl)c3)s2)cc1OC
The “% Inhibition @ 10 uM” value of the first is lower: -13.3% for the first, 11.1% for the second.

Going from `CCOC(=O)c1c(NC(=O)c2cc(S(N)(=O)=O)c(Cl)cc2Cl)sc2c1CCCC2` to `Cc1ccc(C(=O)N/C(=C/c2cccnc2)C(=O)N2CCCC2)cc1`, the “% Inhibition @ 10 uM” value falls from 2.26% to -5.79%.

First: CCOc1ccc(/C=C(\C#N)c2nc3ccccc3[nH]2)cc1OC
Second: COc1ccc(CCNC(=O)c2nc(SC)ncc2Cl)cc1OC
The “% Inhibition @ 10 uM” value of the first is lower: -2.07% for the first, 2.19% for the second.

First: CCc1ccc(C2CC(c3ccc(OC)c(OC)c3OC)n3ncnc3N2)cc1 (stereo not shown)
Second: C=CCn1c(SCC(=O)NCCc2ccc(OCC)c(OCC)c2)nnc1-c1cccs1
The “% Inhibition @ 10 uM” value of the first is higher: 3.32% for the first, 2.7% for the second.

Compared with `Nc1c(C(=O)c2ccc(Br)cc2)sc2nc(-c3cccnc3)ccc12`, `Cc1ccc(C)c(-c2csc(-c3cccnc3)n2)c1` is lower in “% Inhibition @ 10 uM” value: 0.605% for the first, -9.13% for the second.

Going from `N#Cc1c(-c2ccccc2)oc2c1C(=O)c1ccccc1C2=O` to `O=c1c2ccccc2ncn1C1c2ccccc2-c2ccccc21`, the “% Inhibition @ 10 uM” value rises from -2.15% to 3.17%.

Going from `CCCS(=O)(=O)c1c(S(=O)(=O)CCC)c2ccccn2c1C(=O)c1ccc(F)cc1` to `O=C(Nc1c2c(nn1-c1ccc(F)cc1)CSC2)c1ccccc1C(F)(F)F`, the “% Inhibition @ 10 uM” value falls from 0.231% to -3.83%.

First: O=S1(=O)C(/C=N/Cc2ccc3c(c2)OCO3)=C(O)c2sccc2N1Cc1ccccc1
Second: COCCN1C(=O)/C(=C/c2c[nH]c3ccccc23)S/C1=N\c1ccccc1
The “% Inhibition @ 10 uM” value of the first is higher: 7.46% for the first, -7.1% for the second.

Going from `COc1ccc(/C=C(\C#N)C(N)=S)cc1` to `Cc1ccc(/C=N/n2c(C)nnc2C)o1`, the “% Inhibition @ 10 uM” value rises from -2.51% to 4.67%.

Compared with `COc1ccccc1CN1CCN(Cc2ccccc2Br)CC1`, `OCC1CCCN(Cc2ccccc2Cl)C1` (stereo not shown) is higher in “% Inhibition @ 10 uM” value: -2.84% for the first, 3.83% for the second.

Compared with `CC1(C)CC2=Nc3ccccc3NC(c3ccc[nH]3)C2=C(O)C1` (stereo not shown), `CC(Sc1nc(N2CCOCC2)nc(N2CCOCC2)n1)C(=O)Nc1ccccc1` (stereo not shown) is higher in “% Inhibition @ 10 uM” value: -0.736% for the first, 0.993% for the second.

Going from `CC1CCC(N2CCN(C=O)CC2)CC1` (stereo not shown) to `CCOC(=O)N1CCC(NCC(C)(C)CN(C)C)CC1`, the “% Inhibition @ 10 uM” value rises from -5.11% to -2.44%.

In the case of `N#CC1=C(SCC(N)=O)NC(=O)C(C#N)C12CCCCC2` (stereo not shown), the “% Inhibition @ 10 uM” value is reported as 2.55%.
